Assay results from PubChem BioAssay AID686979 (National Center for Advancing Translational Sciences (NCATS), 2013).
Values joined by “and” are separate entries in the source; they are usually repeats but may differ in a detail not shown here. Identical values can stand only once. Among all 420,000 compounds or so, about 50,000 (12%) were called active. Inconclusive means that the source gave no clear call. Such entries were picked first, then a sample of the others. The call rests on the fitted dose curve; in most records, active means well fitted inhibition curve with a large enough effect; inconclusive means small, poorly fitted or top-dose-only effect; inactive means flat fitted curve, though single readings scatter. A potency beside an inconclusive call is a rough fit, not a confirmed value.

test: qHTS for Inhibitors of human tyrosyl-DNA phosphodiesterase 1 (TDP1): qHTS in cells in presence of CPT; details: chicken DT40 Tdp1-/-;hTDP1 cells + 20 nM CPT, ATP luminescence, 48 h; series mostly up to 46.2 µM; further: nearly all actives have a fitted effect of over 55% in size
Procedure, shortened: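 Chicken DT40 Tdp1-/- cells stably complemented with human TDP1 were seeded at 400 cells/well in medium containing 20 nM camptothecin, exposed to pin-transferred compounds, and grown at 37 °C for at least 48 hr. Viability was read as ATP luminescence.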
Potency means the concentration at half of the fitted maximal effect; tags describe the fitted curve by direction and shape.

Row | SMILES | Potency
1 | COc1ccc2[nH]cc(CCNc3nc(-c4ccc(N(C)C)cc4)nc4ccccc34)c2c1 | active: 14.6 µM
2 | CC(C)Oc1cccc(NC(=O)C2(C)CCN2C(=O)C(C)C)c1 (configuration not stated) | inactive
3 | CCN(CC)CC(=O)Nc1sc2c(c1C(=O)c1ccccc1C)CCC2 | inconclusive: 0.731 µM [inhibitor, full curve, poor fit]
4 | CC(C)C[C@@H](CO)N1CCN(Cc2ccc(Br)cc2)CCC1=O | inconclusive: 35.5 µM [inhibitor, single point] and inconclusive: 29.1 µM [inhibitor, single point]
5 | CCCCCCSc1ccc([C@H]2N[C@@](CC(C)C)(C(=O)OC)[C@H]3C(=O)N(C)C(=O)[C@@H]23)cc1OC | inconclusive: 29.1 µM [inhibitor, single point]
6 | CCc1ccc(NC(=O)CN2C(=O)C(c3ccc(C)cc3)=NC23CCCCC3)cc1 | inconclusive: 25.9 µM [inhibitor, single point]
7 | O=C(c1ccc(F)cc1)C(CCCCCC(CN1CCOCC1)C(=O)c1ccc(F)cc1)CN1CCOCC1 (configuration not stated) | inconclusive: 18.4 µM [inhibitor, single point]
8 | O=C(NC1CCCCCC1)c1cc2c(=O)n3ccccc3nc2s1 | inconclusive: 29.1 µM [inhibitor, single point]
9 | Cc1ccc(C(=O)NC(=S)Nc2ccc3[nH]c(=O)[nH]c3c2)cc1C | inconclusive: 29.1 µM [inhibitor, single point]
10 | CN(C)c1ccc(CNc2ccc3c(c2)ncn3C)cc1 | active: 14.6 µM
11 | CCCCOc1ccc(C(=O)N/C(=C\c2ccc(OC)cc2)C(=O)OCc2ccco2)cc1 | inconclusive: 29.1 µM [inhibitor, single point]
12 | COc1ccc2sc(N(Cc3cccnc3)C(=O)C3CCCCC3)nc2c1 | active: 13 µM
13 | O=C(NCC1CC1)c1ccccc1Cl | inactive
14 | CCOC(=O)c1cccc(NC(=O)c2cc3ccccn3n2)c1 | inconclusive: 18.4 µM [inhibitor, partial curve]
15 | CCCCOc1ccc(C2=NC(c3ccncc3)=Nc3ccc(OCC)cc3N2)cc1 | active: 16.4 µM
16 | CCCC(=O)Nc1nc2ccc(NC(=O)c3ccc(Br)o3)cc2s1 | inconclusive: 18.4 µM [inhibitor, single point]
17 | CC1(CCc2ccc3c(c2)OCO3)NCCc2c1[nH]c1ccccc21 (configuration not stated) | inconclusive: 25.9 µM [inhibitor, single point]
18 | CC(=O)c1ccc(Nc2ncnc3ccc(Br)cc23)cc1 | inactive
19 | Cc1noc(C)c1CSCC(=O)Nc1nc2ccc(S(C)(=O)=O)cc2s1 | inconclusive: 29.1 µM [inhibitor, single point]
20 | CC(C)OCCCn1c(SCC(=O)c2ccccc2)nc2c(sc3ccccc32)c1=O | inactive
21 | CCc1cc2c(=O)n(CC)c(SC(C)C(=O)Nc3c(C)n(C)n(-c4ccccc4)c3=O)nc2s1 (configuration not stated) | inconclusive: 10.3 µM [inhibitor, partial curve]
22 | CC(C)(C)NC(=O)Nc1ccc(Cn2cc(C(F)(F)F)ccc2=O)cc1 | active: 20.6 µM
23 | O=C(COC(=O)Cc1ccc(-c2ccccc2)cc1)NCc1ccccc1 | inconclusive: 16.4 µM [inhibitor, partial curve, poor fit]

Row | SMILES | Potency
24 | CC(=O)Nc1ccc(S(=O)(=O)Oc2cccc(N3C(=O)C4CCCCC4C3=O)c2)cc1 (configuration not stated) | inconclusive: 29.1 µM [inhibitor, single point]
25 | COc1ccc(N2CCN(/C(=N\S(=O)(=O)c3ccc(C)cc3)Nc3nc(C)cc(C)n3)CC2)cc1 | inconclusive: 29.1 µM [inhibitor, single point]
26 | CCOC(=O)c1sc(NC(=O)CN2C(=O)NC3(CC(C)CC(C)(C)C3)C2=O)c(C(=O)OCC)c1C (configuration not stated) | active: 9.2 µM
27 | CC(CCc1ccccc1)NC(=O)Cc1ccc([N+](=O)[O-])cc1 (configuration not stated) | inconclusive: 29.1 µM [inhibitor, single point]
28 | Oc1ccc(Cl)cc1CNCC1CCCO1 (configuration not stated) | inconclusive: 32.6 µM [inhibitor, partial curve, poor fit]
29 | COc1ccccc1N1CCN(C(=O)CSc2nnc(-c3ccoc3C)o2)CC1 | inconclusive: 25.9 µM [inhibitor, single point]
30 | O=C(O)c1ccc(NC2=C(n3nnc4ccccc43)C(=O)c3ccccc3C2=O)cc1 | inactive
31 | CCOC(=O)C(=O)N(C)c1c(CC)nc2c(OCc3ccc(OC(F)F)cc3)cccn12 | inconclusive: 23.1 µM [inhibitor, single point]
32 | CN(C)c1ccc(/C=N/N2CCN(c3ccccn3)CC2)cc1 | inactive
33 | O=C(Cc1cccc(NC(=O)C2CCN(C(=O)CCc3ccccc3)CC2)c1)Nc1cccc(C(=O)N2CCOCC2)c1 | active: 14.6 µM
34 | CCCc1[nH]n(-c2nc3ccccc3s2)c(=O)c1C=NCCCN(CC)CC | inactive
35 | Cc1ccc(Cn2c(=O)c3ccccc3n3c(-c4cccc(O)c4)nnc23)cc1 | inconclusive: 25.9 µM [inhibitor, single point]
36 | COc1ccc(NC(=O)N(CCO)Cc2cc3c(C)cc(C)cc3[nH]c2=O)cc1 | inactive
37 | COC(=O)C1=C(C(=O)OC)[C@@H]2N(Cc3ccccc3)c3ccccc3[C@@]23C[C@@H](C(=O)OC)N(C(=O)NC(C)(C)C)C3=N1 | inconclusive: 29.1 µM [inhibitor, single point]
38 | COc1ccc(C(C(=O)NC2CCCC2)N(C(=O)CNC(=O)c2ccco2)c2cccnc2)cc1 (configuration not stated) | inactive
39 | O=C(C1CCN(S(=O)(=O)c2cccc3nonc23)CC1)N1CCN(c2cccc(Cl)c2)CC1 | active: 25.9 µM
40 | COc1ccc(/C=N\NC(=O)c2cc(O)c(O)c(O)c2)cc1COc1ccc(C(=O)OCC(C)C)cc1 | inconclusive: 29.1 µM [inhibitor, single point]
41 | Cc1ccc(N=Cc2ccc[nH]2)c(O)c1 | active: 20.6 µM
42 | O=C(CC[C@H]1O[C@@H](n2ccc(=O)[nH]c2=O)[C@H](O)[C@@H]1O)NCCN1CCOCC1 | inactive
43 | COc1cc(C2c3sc(=O)[nH]c3SC3C(=O)N(c4ccc(Br)cc4)C(=O)C32)ccc1O (configuration not stated) | inactive
44 | O=C(Nc1sc2c(c1C(=O)NCc1cccnc1)CCCC2)c1cc(=O)c2ccccc2o1 | inconclusive: 6.51 µM [inhibitor, single point]
45 | Cc1ccc2nc(COc3ccccc3NC(=O)C(C)(C)C)cc(=O)n2c1 | inconclusive: 25.9 µM [inhibitor, single point]
46 | Cc1cccc(NC(=O)Nc2nnc(N3CCCCC3C)s2)c1C (configuration not stated) | inactive

Row | SMILES | Potency
47 | CCOc1ccc(C2CC(c3c(O)n(C4CCCCC4)c(=O)[nH]c3=O)=Nc3ccccc3S2)cc1 (configuration not stated) | inactive
48 | Cc1ccc(CCNC(=O)c2cc3c(s2)-c2c(C)cccc2OC3)cc1 | inconclusive: 18.4 µM [inhibitor, single point]
49 | CCOC(=O)c1sc2nc(C)nc(N3CCCCC3C)c2c1C (configuration not stated) | inconclusive: 18.4 µM [inhibitor, single point]
50 | C=CCNC(=S)N1CCN(CCN=Cc2c(C)[nH]n(-c3ccc([N+](=O)[O-])cc3)c2=O)CC1 | inactive
51 | O=C(CSc1nc2[nH]ncc2c(=O)[nH]1)NCCc1ccccc1 | inactive
52 | COC(=O)NC(=C(Cl)Cl)S(=O)(=O)c1ccccc1 | active: 6.51 µM
53 | Cc1cc(CN(C)C(=O)c2cc(COc3ccc4ncccc4c3)on2)on1 | active: 7.31 µM
54 | OC(CNCCc1ccc(Cl)cc1)COc1ccc2ccccc2c1 (configuration not stated) | inconclusive: 29.1 µM [inhibitor, single point]
55 | CCOC(=O)N1CCc2c(sc3c2c(=O)n(-c2ccccc2C(F)(F)F)c(=O)n3Cc2ccccc2C)C1 | active: 18.4 µM
56 | CCO[C@H]1OC(C(=O)N2CCCCCCC2)=C[C@@H](c2ccccc2)[C@@H]1CCCO | inconclusive: 20.6 µM [inhibitor, single point]
57 | CC(C)Cn1c(C(C)NC(=O)Cc2ccccc2)nc2ccccc21 (configuration not stated) | active: 11.6 µM
58 | O=C(Cc1ccc(F)cc1)NCc1ccc2c(c1)CCN2C(=O)c1ccc(F)cc1 | inconclusive: 16.4 µM [inhibitor, single point]
59 | Cc1ccc(NS(=O)(=O)c2ccc(-n3cccn3)cc2)cc1Cl | inconclusive: 29.1 µM [inhibitor, single point] and inconclusive: 5.17 µM [inhibitor, partial curve]
60 | O=C(CSc1nnc2ccc3ccccc3n12)Nc1ccccc1Cl | inconclusive: 29.1 µM [inhibitor, single point]
61 | CC(=O)Nc1cc(C(=O)N2CC3(C)CC2CC(C)(C)C3)cc2ncn(CCc3ccccn3)c12 (configuration not stated) | inconclusive: 23.1 µM [inhibitor, single point]
62 | Cc1ccc2oc(C(=O)Nc3nnc(CC(C)C)s3)c(C)c2c1 | inconclusive: 16.4 µM [inhibitor, single point]
63 | CC(OC(=O)c1ccc2noc(-c3ccccc3)c2c1)C(N)=O (configuration not stated) | inconclusive: 29.1 µM [inhibitor, single point]
64 | CCC1=NN(C(=O)c2cccc([N+](=O)[O-])c2)C(O)(c2ccc(C)cc2)C1 (configuration not stated) | inconclusive: 29.1 µM [inhibitor, single point]
65 | COc1cccc(-n2c(SCC(=O)Nc3c(C)cc(C)cc3C)nc3c([nH]c4ccccc43)c2=O)c1 | active: 11.6 µM
66 | Cc1ccc(Cl)cc1N=C(N)N=C(N)N | inconclusive: 23.1 µM [inhibitor, single point]
67 | COC(=O)c1cc2oc3ccccc3c2n1CC(=O)Nc1ccc(Cl)cc1F | inconclusive: 25.9 µM [inhibitor, single point]
